Test results taken from PubChem BioAssay AID588855 (National Center for Advancing Translational Sciences (NCATS), 2011).
The whole screen tested about 410,000 compounds, of which about 5,000 (1.2%) were called active. This list was built around the results that the source calls inconclusive (neither active nor inactive); the mix of calls is not that of the screen. Calls come from the whole dose curve; as a rule, active = well fitted inhibition curve with a large enough effect; inconclusive = small, poorly fitted or top-dose-only effect; inactive = no such curve, though single readings can be large or run the other way. A potency beside an inconclusive call is a rough fit, not a confirmed value.

assay: qHTS for Inhibitors of TGF-b; details: HepG2 CAGA-GFP TGF-b/SMAD3 reporter, GFP fluorescence, 18 h, TGF-beta stimulated, 500 pg/mL final; series mostly up to 46.1 µM; note: nearly all actives have a fitted effect of over 65% in size
Procedure, shortened: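 HEPG2 CAGA-GFP cells (1000/well, DMEM with 1% FBS) were pre-incubated 2 h at 37 degrees C, given compound by pin tool, then stimulated with TGF-beta at 500 pg/mL final for 18 h before per-cell GFP fluorescence imaging.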
Potency is the fitted concentration of half-maximal effect; tags give direction and shape of the fitted curve.

| Compound | Potency |
| --- | --- |
| Cc1ccc2[nH]c3c(Cl)ncnc3c2c1 | inactive |
| COc1cc(OC)c(C(=O)OCC(=O)Nc2c(C)n(C)n(-c3ccccc3)c2=O)cc1OC | inactive |
| CCOc1ccc(CN2CCc3nc(N4CCN(c5ncccn5)CC4)ncc3C2)cc1OC | inconclusive: 11.2 µM [inhibitor, partial curve] |
| Cc1ccc(-c2c(C(=O)N3CCN(c4cccc(C)c4)C(C)C3)oc(=O)c3ccccc23)cc1 (stereo not given) | inconclusive: 11.2 µM [inhibitor, partial curve, poor fit] |
| O=C(NCCC1=CCCCC1)c1ccc(CN2CCOCC2)cc1 | inconclusive: 0.891 µM [inhibitor, full curve, poor fit] |
| CCOC(=O)c1c(C)[nH]c(C)c1S(=O)(=O)N(C)CC(=O)N1CCN(c2ccc(Cl)cc2)CC1 | inconclusive: 35.5 µM [inhibitor, partial curve, poor fit] |
| CC(C)C[C@H]1CNC(=S)N1C[C@H]1CCCN1C[C@H](Cc1ccccc1)N1C[C@H](Cc2ccc(O)cc2)N(CC2CCCCC2)C1=S | active: 11.2 µM |
| NS(=O)(=O)c1ccc(NCc2cc(Cl)ccc2OCc2ccccc2F)cc1 | inconclusive: 12.6 µM [inhibitor, partial curve, poor fit] |
| CCc1c(C)c2cc(Cl)c(O)c(CN3CCCC3)c2oc1=O | inactive |
| Cc1ccccc1-n1c(-c2csc(C)c2C)n[nH]c1=S | inactive |
| Cc1ccc(-c2nn(C)c(=O)c3ccccc23)cc1S(=O)(=O)NCCN1CCOCC1 | inactive |
| COc1ccccc1-c1cnc(C(O)c2ccc(Cl)c(Cl)c2)[nH]1 (stereo not given) | inconclusive: 15.8 µM [inhibitor, single point] |
| CCOc1ccc(NC(=O)C2CCN(c3nc4ccccc4[nH]3)CC2)cc1 | inconclusive: 35.5 µM [inhibitor, single point] |
| CC1CN(C(=O)c2cc3cc(Cl)ccc3[nH]2)CC(C)O1 (stereo not given) | inconclusive: 8.91 µM [inhibitor, partial curve] |
| O=C(NC1CC1)C1CCN(C2CCN(C(=O)c3c(F)cccc3Cl)CC2)CC1 | inactive |
| Cc1ccc(-c2cc(-c3ccccc3C)[nH]n2)c(O)c1 | inconclusive: 7.08 µM [inhibitor, full curve, poor fit] |
| Cc1nc2ccccc2c(N)c1C(=O)/C=C/c1ccccc1 | inconclusive: 22.4 µM [inhibitor, single point] |
| CC(=O)c1cccc(-c2ccnc3c2CC(C(=O)NCc2ccc(F)c(F)c2)O3)c1 (stereo not given) | inactive |
| O=C(N/N=C/c1c[nH]c2ccccc12)C1COc2ccccc2O1 (stereo not given) | inconclusive: 22.4 µM [inhibitor, single point] |
| O=C(O)C1Nc2ccc(C(F)(F)F)cc2C2OCCC12 (stereo not given) | inactive |
| Cc1ccc(Cc2ccc(C(=O)NNC(N)=S)o2)cc1 | inactive |
| O=[N+]([O-])c1ccc(NS(=O)(=O)c2ccccc2)c(Cl)c1 | inconclusive: 22.4 µM [inhibitor, single point] |
| O=C(CCC(=O)Nc1ccccc1)NCCO | inconclusive: 35.5 µM [inhibitor, single point] |

| Compound | Potency |
| --- | --- |
| CC(C)C1C(=O)N(Cc2cn(CC3CCCCC3)nn2)CCS(=O)(=O)N1Cc1ccc(-c2ccc(Cl)nc2)cc1 (stereo not given) | inconclusive: 22.4 µM [inhibitor, single point] |
| Cc1ccc(C(=O)CCS(=O)(=O)c2ccc(Br)cc2)cc1 | inconclusive: 22.4 µM [inhibitor, single point] |
| O=C(/C=C/c1cn(CC(O)CN2CCCCC2)c2ccccc12)c1ccccc1 (stereo not given) | inconclusive: 15.8 µM [inhibitor, single point] |
| C#Cc1ccc(CN2CCC(N3CCC(C(=O)NCc4ccccn4)CC3)CC2)cc1 | inconclusive: 35.5 µM [inhibitor, partial curve, poor fit] |
| CCOc1ccccc1NS(=O)(=O)c1ccc2c(c1)CC(C)N2C(=O)C1CC1 (stereo not given) | inconclusive: 10 µM [inhibitor, partial curve, poor fit] |
| Cc1ccc(C)c(NC(=S)N2CCN(c3ccccn3)CC2)c1 | inactive |
| CCCCCNc1nc(NCCCO)c(C#N)c2c1CN(C)CC2 | inactive |
| O=C(NNC(=O)c1ccccc1Br)c1cnccn1 | inconclusive: 35.5 µM [inhibitor, single point] |
| Cc1cccc(C(=O)N/N=C/c2ccccn2)c1 | inconclusive: 1.26 µM [inhibitor, partial curve, poor fit] |
| COc1ccccc1CNc1nc(NCc2ccccc2F)c2sccc2n1 | active: 12.6 µM |
| Cc1ccc(S(=O)(=O)Nc2ccc(NC(=O)Nc3cccc(C(F)(F)F)c3)cc2)cc1 | active: 15.8 µM |
| Cc1ccc(/C=C(\NC(=O)c2ccc(C)cc2)c2nc(=S)[nH][nH]2)cc1 | inconclusive: 35.5 µM [inhibitor, single point] |
| Cc1noc(C)c1NC(=O)Nc1ccc2c(c1)C(=O)N([C@H](C)CO)C[C@H](C)[C@@H](CN(C)S(=O)(=O)c1ccccc1)O2 | inactive |
| CCNC(=O)C1(C)CCCN(C(=O)c2sc(-c3ccccc3)nc2C)C1 (stereo not given) | inconclusive: 12.6 µM [inhibitor, single point] |
| COC(=O)COc1cccc(NC(=O)c2cccs2)c1 | inactive |
| CN(C)c1ccc(/C=N/NC(=O)CNC(=O)c2ccncc2)cc1 | inactive |
| N#CC1=C(N)OC2=C(C(=O)CC(c3ccccc3)C2)C1c1cccnc1 (stereo not given) | inactive |
| Cc1cccc(NC(=O)COc2coc(CN3CCN(c4ccccc4)CC3)cc2=O)c1C | inconclusive: 35.5 µM [inhibitor, partial curve, poor fit] |
| O=C(NCCC1=CCCCC1)C1CCN(Cc2cnn(-c3ccccc3)c2-n2cccc2)CC1 | inconclusive: 11.2 µM [inhibitor, partial curve, poor fit] |
| N/C(=N\OC(=O)c1ccc(Cl)cc1Cl)c1cccnc1 | inactive |
| Cc1ccc(S(=O)(=O)N2CCN(c3ccccc3)CC2)s1 | inactive |
| COc1ccc(NC(=O)CSc2nc3nc(C)cc(C)c3c(=O)[nH]2)cc1OC | inconclusive: 35.5 µM [inhibitor, single point] |
